Test results: the supplement of paper PMC7125110
± gives the standard error. Variants at the background level are over-represented here.

B1: glmS ribozyme (parent)
chain: AUAAAAGCGCCAGAACUACAGAAAUGUAGUUGACGAGGAGGAGGUUUAUCGAAUUUUCGGCGGAUGCCUCCAAA

Key:
Conditions in all cases: with glucosamine-6-phosphate
glucosamine-6-phosphate [1] = variants of: B1; experiment: self-cleavage kobs at 640 uM GlcN6P; higher = faster cleavage; RNA array
Outline: (§1)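 Glucosamine-6-phosphate (40 μM to 10 mM) in HEPES/KCl/Mg(OAc)2 buffer was flowed over sequenced MiSeq chips, and tiles were imaged over ~14 h. Barcoded ribozyme variants there had been transcribed in situ by E. coli RNA polymerase and were tracked through a hybridised Cy3 probe at 37 °C. One- or two-exponential decay fits to per-tile medians, normalised to baseline and to non-cleaving reference variants, gave kobs. kcat and KM came from weighted Michaelis–Menten fits across concentrations.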

glucosamine-6-phosphate [2] = variants of: B1; experiment: self-cleavage kobs at 2500 uM GlcN6P; higher = faster cleavage; RNA array
Outline: as §1

glucosamine-6-phosphate [3] = variants of: B1; experiment: self-cleavage kobs at 10000 uM GlcN6P; higher = faster cleavage; RNA array
Outline: as §1

glucosamine-6-phosphate [4] = variants of: B1; experiment: self-cleavage kobs at 160 uM GlcN6P; higher = faster cleavage; RNA array
Outline: as §1

glucosamine-6-phosphate [5] = variants of: B1; experiment: self-cleavage kobs at 40 uM GlcN6P; higher = faster cleavage; RNA array
Outline: as §1

Variant | self-cleavage kobs at 640 uM GlcN6P (glucosamine-6-phosphate [1]) [s⁻¹] | self-cleavage kobs at 2500 uM GlcN6P (glucosamine-6-phosphate [2]) [s⁻¹] | self-cleavage kobs at 10000 uM GlcN6P (glucosamine-6-phosphate [3]) [s⁻¹] | self-cleavage kobs at 160 uM GlcN6P (glucosamine-6-phosphate [4]) [s⁻¹] | self-cleavage kobs at 40 uM GlcN6P (glucosamine-6-phosphate [5]) [s⁻¹]
A6C G7U A36G C67U C68G C71A | < 1e-05 | < 1e-05 | < 1e-05 |  | 
G7C C34G A64U U69A | < 1e-05 | < 1e-05 |  |  | 
A6U C8A G41U U65G | < 1e-05 | < 1e-05 |  |  | 
A6G G38U A64G G66C | < 1e-05 |  |  |  | 
C8G G13C A52U U69G | < 1e-05 | < 1e-05 |  |  | 
G7C C11A U31A A52G | < 1e-05 |  |  |  | 
C8U A12C G43C U49C | < 1e-05 | < 1e-05 | < 1e-05 | < 1e-05 | 
G7A A39U A48C G59A | < 1e-05 | < 1e-05 |  |  | 
G7U C50A | < 1e-05 |  | < 1e-05 | < 1e-05 | 
G9C A12G C16G G37C | < 1e-05 | < 1e-05 |  |  | 
G7U G35U U46A U57G C71U | < 1e-05 |  |  |  | 
C8U C10A G62A | < 1e-05 |  |  | < 1e-05 | 
G7A A15U U56G C58A | < 1e-05 |  |  |  | 
A6G G40U G41C A53U | < 1e-05 |  |  |  | 
A6U C10G U65G | < 1e-05 | < 1e-05 |  |  | 
G7U A14U A33C G38A U54A | < 1e-05 |  |  |  | 
G7A G51C | < 1e-05 |  |  | < 1e-05 | 
C8A G32A A39U U69G | < 1e-05 |  |  |  | 
G7U A53U G63U C67U | < 1e-05 | < 1e-05 |  | < 1e-05 | 

Variant | self-cleavage kobs at 640 uM GlcN6P (glucosamine-6-phosphate [1]) [s⁻¹] | self-cleavage kobs at 2500 uM GlcN6P (glucosamine-6-phosphate [2]) [s⁻¹] | self-cleavage kobs at 10000 uM GlcN6P (glucosamine-6-phosphate [3]) [s⁻¹] | self-cleavage kobs at 160 uM GlcN6P (glucosamine-6-phosphate [4]) [s⁻¹] | self-cleavage kobs at 40 uM GlcN6P (glucosamine-6-phosphate [5]) [s⁻¹]
A6C A39G G40A A48G G62U G63U | < 1e-05 | < 1e-05 |  |  | 
A6G A12U A33U | < 1e-05 |  | < 1e-05 |  | 
A6G G43A C70U | < 1e-05 | < 1e-05 | < 1e-05 | < 1e-05 | 
G7C G13C U31A U49C | < 1e-05 |  | < 1e-05 |  | 
C8U G9U C67A C71U | < 1e-05 |  |  |  | 
C8A U49G C68G | 0.000875 ± 0.00033 |  |  |  | 
G9C A15G A42C G66C | < 1e-05 |  |  |  | 
C8G U47G G62A | < 1e-05 | < 1e-05 |  | < 1e-05 | 
C8U U56A U65A C70G | < 1e-05 |  |  |  | 
A6G A33C C50U G59U | < 1e-05 |  |  | < 1e-05 | 
A6U A42U | < 1e-05 | < 1e-05 |  | < 1e-05 | 
C8A A22C C71A | < 1e-05 | < 1e-05 |  |  | 
A6G U31G G37U | < 1e-05 | < 1e-05 |  |  | 
A6U C8A G43U A53C G62C | < 1e-05 |  |  |  | 
A6C G44A G51U | < 1e-05 | < 1e-05 |  |  | 
C8G G13A A14G G32C | < 1e-05 |  |  |  | 
A6U G29U A52C | < 1e-05 |  |  |  | 
G7C G29U | < 1e-05 | < 1e-05 | < 1e-05 | < 1e-05 | 
G9A G32U A36G G44A | < 1e-05 | < 1e-05 |  |  | 

Variant | self-cleavage kobs at 640 uM GlcN6P (glucosamine-6-phosphate [1]) [s⁻¹] | self-cleavage kobs at 2500 uM GlcN6P (glucosamine-6-phosphate [2]) [s⁻¹] | self-cleavage kobs at 10000 uM GlcN6P (glucosamine-6-phosphate [3]) [s⁻¹] | self-cleavage kobs at 160 uM GlcN6P (glucosamine-6-phosphate [4]) [s⁻¹] | self-cleavage kobs at 40 uM GlcN6P (glucosamine-6-phosphate [5]) [s⁻¹]
A6G A15U G62U | < 1e-05 | < 1e-05 |  | < 1e-05 | 
A64C G66U |  | < 1e-05 | < 1e-05 | < 1e-05 | < 1e-05
G7A U54A G60U C68A | < 1e-05 | < 1e-05 |  | < 1e-05 | 
C8G C10G | < 1e-05 | < 1e-05 | < 1e-05 | < 1e-05 | 
A64C C68G |  |  | < 1e-05 |  | < 1e-05
A64C C70U C71U |  |  |  |  | < 1e-05
C8G G13C G40A U56A G59U | < 1e-05 |  |  |  | 
C8A A42U U45C U65G | < 1e-05 | < 1e-05 |  |  | 
A6C G9C A52U | < 1e-05 |  |  |  | 
A6G G32A A42C | < 1e-05 | < 1e-05 |  | < 1e-05 | 
G7U C8G A42C C58U | < 1e-05 | < 1e-05 |  |  | 
C8G G32A C58U | < 1e-05 | < 1e-05 |  |  | 
G62C C71U | < 1e-05 | < 1e-05 | < 1e-05 | < 1e-05 | < 1e-05
A6C C11A G35A | < 1e-05 | < 1e-05 |  |  | 
C8A C34G C61G | < 1e-05 |  |  |  | 
C8A A15G U31G A36C | < 1e-05 |  |  |  | 
A6G G38C G43U U56A U69A | < 1e-05 | < 1e-05 |  |  | 
C8A C34A U57C | < 1e-05 |  |  |  | 
G9A U54G | < 1e-05 |  |  | < 1e-05 | 
